Results from patent US8722849B2, “Polypeptides” (Novo Nordisk A/S, priority 2011, dated 2014).
The name of at least one read-out is uncertain. Starred links: 1 amine or outer side, 2 acyl side, 3 side chain; linkers in the order of their positions; H or OH if unused. Positions of bridges follow the written chain, without caps; N, C: chain ends. Residues, ends and D or L forms follow the SMILES beside them. *: point of attachment. C20 diacid = O=C(O)CCCCCCCCCCCCCCCCCCC(=O)*; C18 diacid = O=C(O)CCCCCCCCCCCCCCCCC(=O)*; γGlu = O=C(O)[C@H](CCC(=O)[*:2])N[*:1]

Test: Assay (III) ThT fibrillation assay for physical stability
Assay type: physicochemical
Settings: ThT fibrillation assay
Method in brief: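 Freshly prepared formulations, pH-adjusted, with 1 μM ThT; four or eight replicates incubated at 37 °C under 960 rpm orbital shaking. Fluorescence (ex 444/em 485 nm) read every 20 min; […]. Peptide concentration measured by RP-HPLC before and after the run.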

Row | Structure (SMILES) | ThT pH 4.0 recovery | ThT pH 4.0 recovery (%)
1 | CC[C@H](C)[C@H](NC(=O)[C@@H]1CCCN1C(=O)CNC(=O)[C@H](Cc1ccccc1)NC(=O)[C@H](CC(N)=O)NC(=O)[C@H](CCC(N)=O)NC(=O)[C@H](CO)NC(=O)[C@H](CO)NC(=O)[C@H](Cc1c[nH]cn1)NC(=O)[C@H](Cc1c[nH]cn1)NC(=O)[C@H](CC(C)C)NC(=O)[C@H](Cc1ccccc1)NC(=O)[C@H](CCC(=O)O)NC(=O)[C@H](C)NC(=O)[C@H](CC(C)C)NC(=O)[C@H](CCCNC(=N)N)NC(=O)[C@H](CCC(N)=O)NC(=O)[C@@H](NC(=O)[C@H](C)NC(=O)[C@@H]1CSSC[C@H](NC(=O)[C@H](CCCCN)NC(=O)CC[C@H](NC(=O)CCCCCCCCCCCCCCCCCCC(=O)O)C(=O)O)C(=O)N[C@@H](CC(N)=O)C(=O)N[C@@H]([C@@H](C)O)C(=O)N[C@@H](C)C(=O)N[C@@H]([C@@H](C)O)C(=O)N1)[C@@H](C)O)C(=O)N[C@@H](CC(C)C)C(=O)N1CCC[C@H]1C(=O)N1CCC[C@H]1C(=O)N[C@H](C(=O)N[C@@H](CC(N)=O)C(=O)N[C@H](C(=O)NCC(=O)N[C@@H](CO)C(=O)N[C@@H](Cc1c[nH]cn1)C(=O)N[C@H](C(=O)N[C@@H](Cc1ccc(O)cc1)C(N)=O)[C@@H](C)O)C(C)C)[C@@H](C)O [Example 117, N-alpha-[(S)-4-Carboxy-4-(19-carboxynonadecanoylamino)butyryl]-[Glu14,His17,Gln21,His35)-pramlintide] ({C20 diacid-γGlu}-KCNTATCATQRLAEFLHHSSQNFGPILPPTNVGSHTY-NH2; disulfide 2-7 (inferred); C-terminus assumed) | 92% | 92%
2 | CC[C@H](C)[C@H](NC(=O)[C@@H]1CCCN1C(=O)CNC(=O)[C@H](Cc1ccccc1)NC(=O)[C@H](CC(N)=O)NC(=O)[C@H](CC(N)=O)NC(=O)[C@H](CO)NC(=O)[C@H](CO)NC(=O)[C@H](Cc1c[nH]cn1)NC(=O)[C@H](Cc1c[nH]cn1)NC(=O)[C@H](CC(C)C)NC(=O)[C@H](Cc1ccccc1)NC(=O)[C@H](CCC(=O)O)NC(=O)[C@H](C)NC(=O)[C@H](CC(C)C)NC(=O)[C@H](CCCNC(=N)N)NC(=O)[C@H](CCC(N)=O)NC(=O)[C@@H](NC(=O)[C@H](C)NC(=O)[C@@H]1CSSC[C@H](NC(=O)[C@H](CCCCN)NC(=O)[C@H](CCC(=O)O)NC(=O)CC[C@H](NC(=O)CCCCCCCCCCCCCCCCC(=O)O)C(=O)O)C(=O)N[C@@H](CC(N)=O)C(=O)N[C@@H]([C@@H](C)O)C(=O)N[C@@H](C)C(=O)N[C@@H]([C@@H](C)O)C(=O)N1)[C@@H](C)O)C(=O)N[C@@H](CC(C)C)C(=O)N1CCC[C@H]1C(=O)N1CCC[C@H]1C(=O)N[C@H](C(=O)N[C@@H](CC(N)=O)C(=O)N[C@H](C(=O)NCC(=O)N[C@@H](CO)C(=O)N[C@@H](Cc1c[nH]cn1)C(=O)N[C@H](C(=O)N[C@@H](Cc1ccc(O)cc1)C(N)=O)[C@@H](C)O)C(C)C)[C@@H](C)O [Example 60, N-alpha-[(S)-4-Carboxy-4-(17-carboxyheptadecanoylamino)butyryl]-Glu-[Glu14,His17,His35]-pramlintide] ({C18 diacid-γGlu}-EKCNTATCATQRLAEFLHHSSNNFGPILPPTNVGSHTY-NH2; disulfide 3-8) |  | 13%
3 | CC[C@H](C)[C@H](NC(=O)[C@@H]1CCCN1C(=O)CNC(=O)[C@H](Cc1ccccc1)NC(=O)[C@H](CC(N)=O)NC(=O)[C@H](CC(N)=O)NC(=O)[C@H](CO)NC(=O)[C@H](CO)NC(=O)[C@H](Cc1c[nH]cn1)NC(=O)[C@H](Cc1c[nH]cn1)NC(=O)[C@H](CC(C)C)NC(=O)[C@H](Cc1ccccc1)NC(=O)[C@H](CCC(=O)O)NC(=O)[C@H](C)NC(=O)[C@H](CC(C)C)NC(=O)[C@H](CCCNC(=N)N)NC(=O)[C@H](CCC(N)=O)NC(=O)[C@@H](NC(=O)[C@H](C)NC(=O)[C@@H]1CSSC[C@H](NC(=O)[C@H](Cc2c[nH]cn2)NC(=O)[C@H](Cc2c[nH]cn2)NC(=O)[C@H](Cc2c[nH]cn2)NC(=O)CC[C@H](NC(=O)CCCCCCCCCCCCCCCCCCC(=O)O)C(=O)O)C(=O)N[C@@H](CCCNC(=N)N)C(=O)N[C@@H]([C@@H](C)O)C(=O)N[C@@H](C)C(=O)N[C@@H]([C@@H](C)O)C(=O)N1)[C@@H](C)O)C(=O)N[C@@H](CC(C)C)C(=O)N1CCC[C@H]1C(=O)N1CCC[C@H]1C(=O)N[C@H](C(=O)N[C@@H](CC(N)=O)C(=O)N[C@H](C(=O)NCC(=O)N[C@@H](CO)C(=O)N[C@@H](CC(N)=O)C(=O)N[C@H](C(=O)N[C@@H](Cc1ccc(O)cc1)C(N)=O)[C@@H](C)O)C(C)C)[C@@H](C)O [Example 22, N-alpha-[(S)-4-Carboxy-4-(19-carboxynonadecanoylamino)butyryl]-His-His-[His1,Arg3,Glu14,His17]-pramlintide] ({C20 diacid-γGlu}-HHHCRTATCATQRLAEFLHHSSNNFGPILPPTNVGSNTY-NH2; disulfide 4-9 (inferred)) |  | 14%
